± gives the standard deviation of the averaged measurements. Laboratory Escherichia coli strains with one amino-acid change in an essential protein, pooled on minimal glucose agar with carbenicillin or gentamicin at twice the control MIC (plus kanamycin and chloramphenicol for the plasmids), 48 h. Fold change of barcode share against drug-free plates; higher = less susceptible. Active = above 20 in both replicates (the paper's putatively resistant). '<' = one read or none on drug, '>' = one read or none on a drug-free plate. Shares are relative, so most strains fall below 1 when a few take over. Listed are strains with at least 15 reads on both drug-free plates, and hits; most hits rest on fewer reference reads. Replicate rank correlation about 0.5. Edits are read from barcodes.
B1: thrA; numbered along this chain (parent)
chain: MRVLKFGGTSVANAERFLRVADILESNARQGQVATVLSAPAKITNHLVAMIEKTISGQDALPNISDAERIFAELLTGLAAAQPGFPLAQLKTFVDQEFAQIKHVLHGISLLGQCPDSINAALICRGEKMSIAIMAGVLEARGHNVTVIDPVEKLLAVGHYLESTVDIAESTRRIAASRIPADHMVLMAGFTAGNEKGELVVLGRNGSDYSAAVLAACLRADCCEIWTDVDGVYTCDPRQVPDARLLKSMSYQEAMELSYFGAKVLHPRTITPIAQFQIPCLIKNTGNPQAPGTLIGASRDEDELPVKGISNLNNMAMFSVSGPGMKGMVGMAARVFAAMSRARISVVLITQSSSEYSISFCVPQSDCVRAERAMQEEFYLELKEGLLEPLAVTERLAIISVVGDGMRTLRGISAKFFAALARANINIVAIAQGSSERSISVVVNNDDATTGVRVTHQMLFNTDQVIEVFVIGVGGVGGALLEQLKRQQSWLKNKHIDLRVCGVANSKALLTNVHGLNLENWQEELAQAKEPFNLGRLIRLVKEYHLLNPVIVDCTSSQAVADQYADFLREGFHVVTPNKKANTSSMDYYHQLRYAAEKSRRKFLYDTNVGAGLPVIENLQNLLNAGDELMKFSGILSGSLSYIFGKLDEGMSFSEATTLAREMGYTEPDPRDDLSGMDVARKLLILARETGRELELADIEIEPVLPAEFNAEGDVAAFMANLSQLDDLFAARVAKARDEGKVLRYVGNIDEDGVCRVKIAEVDGNDPLFKVKNGENALAFYSHYYQPLPLVLRGYGAGNDVTAAGVFADLLRTLSWKLGV
B2: trpE; numbered along this chain (parent)
chain: MQTQKPTLELLTCEGAYRDNPTALFHQLCGDRPATLLLESADIDSKDDLKSLLLVDSALRITALGDTVTIQALSGNGEALLALLDNALPAGVESEQSPNCRVLRFPPVSPLLDEDARLCSLSVFDAFRLLQNLLNVPKEEREAMFFGGLFSYDLVAGFEDLPQLSAENNCPDFCFYLAETLMVIDHQKKSTRIQASLFAPNEEEKQRLTARLNELRQQLTEAAPPLPVVSVPHMRCECNQSDEEFGGVVRLLQKAIRAGEIFQVVPSRRFSLPCPSPLAAYYVLKKSNPSPYMFFMQDNDFTLFGASPESSLKYDATSRQIEIYPIAGTRPRGRRADGSLDRDLDSRIELEMRTDHKELSEHLMLVDLARNDLARICTPGSRYVADLTKVDRYSYVMHLVSRVVGELRHDLDALHAYRACMNMGTLSGAPKVRAMQLIAEAEGRRRGSYGGAVGYFTAHGDLDTCIVIRSALVENGIATVQAGAGVVLDSVPQSEADETRNKARAVLRAIATAHHAQETF
B3: ppa; numbered along this chain (parent)
chain: MSLLNVPAGKDLPEDIYVVIEIPANADPIKYEIDKESGALFVDRFMSTAMFYPCNYGYINHTLSLDGDPVDVLVPTPYPLQPGSVIRCRPVGVLKMTDEAGEDAKLVAVPHSKLSKEYDHIKDVNDLPELLKAQIAHFFEHYKDLEKGKWVKVEGWENAEAAKAEIVASFERAKNK

Variants of: B1
Assay: barcode share on antibiotic plates over drug-free plates; higher = less susceptible
Details: with Escherichia coli (laboratory strain); antibiotic: carbenicillin; 2× MIC (3.1 µg/mL)
Description: (§1)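 A pool of E. coli strains, each edited to carry one amino-acid change in an essential protein, was grown for 48 h on minimal glucose agar with or without antibiotic; strain barcodes were sequenced; mean of two replicates.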

Row | Variant | fold change of barcode share
1 | I399Q | 0.751 ± 0.2
2 | I399W | 0.914 ± 0.32
3 | I399D | 1.22 ± 0.1
4 | I399A | 1.12 ± 0.4
5 | L348W | 1.6 ± 0.6
6 | L348Q | 1.87 ± 0.72
7 | V443Q | 2.08 ± 0.22
8 | V443D | 2.69 ± 0.76
9 | V443A | 1.68 ± 0.31
10 | V443P | 2.488 ± 0.0035
11 | V442D | 1.51 ± 0.14
12 | V442P | 3.05 ± 0.28
13 | V442A | 2 ± 0.46

Same assay, conditions: with Escherichia coli (laboratory strain); antibiotic: gentamicin; 2× MIC (MIC 0.45 µg/mL)

Row | Variant | fold change of barcode share
14 | I399Q | 0.00839 ± 0.0087
15 | I399W | 0.013 ± 0.0024
16 | I399D | 0.0117 ± 0.011
17 | I399A | 0.00752 ± 0.0052
18 | L348W | 0.00624 ± 0.0037
19 | L348Q | 0.0102 ± 0.009
20 | V443Q | 0.0128 ± 0.003
21 | V443D | 0.0198 ± 0.019
22 | V443A | 0.00925 ± 0.0047
23 | V443P | 0.0296 ± 0.033
24 | V442D | 0.022 ± 0.021
25 | V442P | 0.0356 ± 0.039
26 | V442A | 0.0189 ± 0.013

Variants of: B2
Assay: as above
Details: with Escherichia coli (laboratory strain); antibiotic: carbenicillin; 2× MIC (3.1 µg/mL)
Description: as §1

Row | Variant | fold change of barcode share
27 | F124Q | 0.312 ± 0.03
28 | F124P | 1.06 ± 0.85
29 | F124W | 0.371 ± 0.14
30 | F124A | 0.498 ± 0.091
31 | F304A | 0.296 ± 0.13
32 | F304Q | 0.426 ± 0.063
33 | F25P | 0.441 ± 0.097
34 | F25Q | 0.395 ± 0.073
35 | F25D | 0.318 ± 0.14
36 | F25W | 0.552 ± 0.11
37 | F25A | 0.275 ± 0.049
38 | M421P | 0.568 ± 0.14
39 | M421D | 0.347 ± 0.056
40 | M421A | 0.563 ± 0.11
41 | V155D | 0.479 ± 0.35
42 | V155W | 0.425 ± 0.19
43 | V155P | 0.567 ± 0.025
44 | V155A | 0.336 ± 0.058
45 | V155Q | 0.47 ± 0.22
46 | I466Q | 0.979 ± 0.3
47 | I466A | 0.862 ± 0.00047
48 | I466P | 3.05 ± 2.9

Same assay, conditions: with Escherichia coli (laboratory strain); antibiotic: gentamicin; 2× MIC (MIC 0.45 µg/mL)

Row | Variant | fold change of barcode share
49 | F124Q | < 0.0128
50 | F124P | < 0.013
51 | F124W | < 0.0131
52 | F124A | < 0.0123
53 | F304A | < 0.01
54 | F25P | 0.017 ± 0.0094
55 | F25Q | < 0.00583
56 | F25D | 0.0204 ± 0.013
57 | F25W | 0.0349 ± 0.038
58 | F25A | 0.00887 ± 0.0085
59 | M421P | < 0.0147
60 | M421A | 0.0244 ± 0.022
61 | V155D | 0.0155 ± 0.011
62 | V155W | < 0.011
63 | V155P | 0.0129 ± 0.01
64 | V155A | 0.0175 ± 0.015
65 | V155Q | 0.971 ± 0.84
66 | I466A | 0.0338 ± 0.011

Variants of: B3
Assay: as above
Details: with Escherichia coli (laboratory strain); antibiotic: carbenicillin; 2× MIC (3.1 µg/mL)
Description: as §1

Row | Variant | fold change of barcode share
67 | I22Q | 1.06 ± 0.62
68 | I22A | 0.482 ± 0.17
69 | V70Q | 0.245 ± 0.042
70 | V70A | 0.271 ± 0.034
71 | V70P | 0.319 ± 0.031
72 | V70D | 0.398 ± 0.21
73 | I20A | 1.442 ± 0.0087
74 | V72W | 0.329 ± 0.012
75 | V72A | 0.26 ± 0.13
76 | V72D | 0.267 ± 0.1
77 | V72Q | 0.353 ± 0.12
78 | V72P | 0.445 ± 0.034
79 | V91A | 0.271 ± 0.033
80 | L73W | 0.241 ± 0.069
81 | L73P | 0.426 ± 0.14
82 | L73A | 0.321 ± 0.0098
83 | L73Q | 0.317 ± 0.085
84 | L94W | 0.374 ± 0.015
85 | L94Q | 0.331 ± 0.051
86 | L94P | 0.208 ± 0.073
87 | L94A | 0.209 ± 0.0035
88 | V19A | 0.237 ± 0.065
89 | V19Q | 0.199 ± 0.16
90 | V19W | 0.237 ± 0.07

Same assay, conditions: with Escherichia coli (laboratory strain); antibiotic: gentamicin; 2× MIC (MIC 0.45 µg/mL)

Row | Variant | fold change of barcode share
91 | I22Q | 0.0127 ± 0.0045
92 | I22A | 0.154 ± 0.21
93 | V70Q | 0.00728 ± 0.0021
94 | V70A | 0.00603 ± 0.0067
95 | V70P | 0.0167 ± 0.019
96 | I20A | 0.00621 ± 0.0033
97 | V72W | 0.0177 ± 0.017
98 | V72A | 0.0064 ± 0.0046
99 | V72D | 0.0097 ± 0.0092
100 | V72Q | < 0.0102
101 | V72P | < 0.0138
102 | V91A | 0.00423 ± 0.0015
103 | L73W | 0.145 ± 0.2
104 | L73P | 0.00709 ± 0.0052
105 | L73A | 0.00554 ± 0.0016
106 | L73Q | < 0.00415
107 | L94W | 0.00526 ± 0.002
108 | L94Q | 0.00677 ± 0.002
109 | L94P | < 0.00329
110 | L94A | < 0.00332
111 | V19A | 0.0329 ± 0.033
112 | V19W | < 0.00515

— the supplement of paper PMC11876631
